Experimental data: the antibiotic and cytotoxicity screens of Wong et al. (2023)
This is one part of the list.

Each compound was assayed on S. aureus RN4220 (assay: growth inhibition call (relative growth <= 0.2)). Settings: 50 µM.

Growth inhibition call, inactive:
C[C@@H]1CN([C@H](C)CO)C(=O)Cc2cc(NC(=O)Cn3cnnn3)ccc2O[C@@H]1CN(C)Cc1ccc(C(=O)Nc2ccccc2N)cc1
CC(C)NC(=O)N(C)C[C@H]1Oc2ccc(NC(=O)CCN3CCOCC3)cc2C(=O)N([C@H](C)CO)C[C@@H]1C
C[C@H](CO)N1C[C@H](C)[C@H](CN(C)Cc2ccc(Oc3ccccc3)cc2)Oc2ccc(NC(=O)CCCN(C)C)cc2CC1=O
COc1ccc(NC(=O)Nc2cccc3c2O[C@@H](CN(C)C(=O)Nc2cccc4ccccc24)[C@H](C)CN([C@H](C)CO)C3=O)cc1
Cc1ccc(S(=O)(=O)N(C)C[C@H]2OCCCC[C@@H](C)Oc3ccc(NC(=O)Nc4ccc(C(F)(F)F)cc4)cc3C(=O)N([C@H](C)CO)C[C@@H]2C)cc1
CC(O)C(N)C(=O)O (stereo not given)
Nc1nc(=O)c2ncn(COC(CO)CO)c2[nH]1
CC(C)CC#Cc1ccc2c(c1)O[C@@H](CN(C)C(=O)NC1CCCC1)[C@H](C)CN([C@@H](C)CO)S2(=O)=O
C=CC(C)(O)CCC1C(C)(O)CCC2C(C)(C)CCCC21C (stereo not given)
CO[C@H]1CN(C)C(=O)c2ccc(NS(=O)(=O)c3cn(C)cn3)cc2OC[C@@H](C)N(Cc2cccc(F)c2)C[C@@H]1C
C[C@H](CO)N1C[C@H](C)[C@H](CN(C)Cc2ccc(C(F)(F)F)cc2)Oc2ccc(NC(=O)Cc3ccccc3)cc2CC1=O
C[C@@H]1CCCCO[C@H](CN(C)C(=O)Nc2ccc(C(F)(F)F)cc2)[C@@H](C)CN([C@H](C)CO)C(=O)c2cc(NC(=O)CCC(F)(F)F)ccc2O1
C[C@H]1CN([C@@H](C)CO)C(=O)Cc2cc(NC(=O)Cc3cn(C)c4ccccc34)ccc2O[C@@H]1CN(C)Cc1ccc(C(=O)Nc2ccccc2N)cc1
COc1ccc(NC(=O)N(C)C[C@H]2Oc3c(NC(=O)Nc4cccc5ccccc45)cccc3C(=O)N([C@H](C)CO)C[C@@H]2C)cc1
CN1CCC(=C2c3ccccc3CC(=O)c3sccc32)CC1.O=C(O)C=CC(=O)O
C[C@@H]1CCCCO[C@H](CN(C)S(C)(=O)=O)[C@@H](C)CN([C@@H](C)CO)C(=O)c2cc(N(C)C)ccc2O1
C[C@@H]1CCCCO[C@H](CN(C)C(=O)C2CCCCC2)[C@H](C)CN([C@@H](C)CO)C(=O)c2cc(NC(=O)Nc3ccc(F)cc3)ccc2O1
CC(C)(C)[S@@](=O)N1Cc2cc(C(=O)N3CCc4ccccc4C3)nc(-c3cccc(-c4cncnc4)c3)c2[C@H]1CCO
C[C@@H]1CN([C@@H](C)CO)C(=O)c2cc(Br)cnc2O[C@H]1CN(C)Cc1ccccc1C(=O)O
C=CCN1C(=O)[C@@H]2[C@@H](C1=O)[C@@H]1C=C[C@@H]2C1
O=C(C[C@H]1CC[C@H]2[C@@H](COC[C@H](O)CN2Cc2cc(F)ccc2F)O1)N[C@@H]1CCN(Cc2ccccc2)C1
COc1ccc([Si](C)(C)[C@@H]2[C@@H](CCOC(=O)NCCCCCC(=O)NO)O[C@@]3(C(=O)N(Cc4ccccc4)c4ccc(NC(=O)[C@@H](C)OC(=O)NCCCCCC(=O)NO)cc43)[C@H]2C)cc1
CC[C@@](C)(Nc1n[nH]c(=O)[nH]c1=O)C(=O)O
C[C@H]1CN([C@@H](C)CO)C(=O)c2cccc(NC(=O)C3CC3)c2O[C@H]1CN(C)Cc1ccc2c(c1)OCO2
CC(C)NC(=O)N(C)C[C@@H]1OCCCC[C@@H](C)Oc2ccc(NC(=O)Nc3ccccc3)cc2C(=O)N([C@H](C)CO)C[C@@H]1C
COc1ccc(NC(=O)Nc2ccc3c(c2)CC(=O)N([C@@H](C)CO)C[C@H](C)[C@@H](CN(C)C(=O)Nc2cccc4ccccc24)O3)cc1
C[C@H](CO)N1C[C@H](C)[C@@H](CN(C)S(=O)(=O)c2cccs2)OCCCC[C@H](C)Oc2ccc(NC(=O)Cc3ccccc3)cc2C1=O
C[C@@H]1CN([C@@H](C)CO)S(=O)(=O)c2ccc(C3=CCCC3)cc2O[C@@H]1CN(C)C(=O)c1cnccn1
Cc1noc(C)c1S(=O)(=O)N(C)C[C@@H]1Oc2ccc(NS(=O)(=O)c3cn(C)cn3)cc2CC(=O)N([C@@H](C)CO)C[C@H]1C
C[C@H]1CN([C@@H](C)CO)C(=O)c2cc(C#Cc3ccccc3)cnc2O[C@H]1CN(C)S(=O)(=O)c1ccccc1F
